The target in this assay is myc-mTOR^wt (human, UniProt P42345). In words: co-IP of myc-mTOR with PLD2 mutants (FIG. 6). Here is the method:
After harvesting COS7 cells, total extracts were prepared by brief sonication in ice-cold lysis buffer (40 mM HEPES pH7.5, 120 mM NaCl, 1 mM EDTA, 10 mM pyrophosphate, 10 mM glycerophosphate, 50 mM NaF, 1.5 mM Na₃VO₄, 0.5% CHAPS, 1 mM PMSF, protease inhibitor cocktails). Clarified extracts were mixed with 2 μg of the respective antibodies. Then protein A-Sepharose beads were added to isolate the antibody complex. After four washings with lysis buffer, the final immunoprecipitates were washed once with wash buffer (50 mM HEPES pH7.5, 150 mM NaCl), and then subjected to SDS-PAGE using Hyperfilm (Amersham Pharmacia Biotech), nitrocellulose membranes (Watmann), Power supply (Amersham Pharmacia Biotech), Electrophoretic Transfer unit (Hoefer Scientific Instruments), and ECL™ (Amersham Pharmacia Biotech).

B1: PLD2^F265A (enzyme)
chain: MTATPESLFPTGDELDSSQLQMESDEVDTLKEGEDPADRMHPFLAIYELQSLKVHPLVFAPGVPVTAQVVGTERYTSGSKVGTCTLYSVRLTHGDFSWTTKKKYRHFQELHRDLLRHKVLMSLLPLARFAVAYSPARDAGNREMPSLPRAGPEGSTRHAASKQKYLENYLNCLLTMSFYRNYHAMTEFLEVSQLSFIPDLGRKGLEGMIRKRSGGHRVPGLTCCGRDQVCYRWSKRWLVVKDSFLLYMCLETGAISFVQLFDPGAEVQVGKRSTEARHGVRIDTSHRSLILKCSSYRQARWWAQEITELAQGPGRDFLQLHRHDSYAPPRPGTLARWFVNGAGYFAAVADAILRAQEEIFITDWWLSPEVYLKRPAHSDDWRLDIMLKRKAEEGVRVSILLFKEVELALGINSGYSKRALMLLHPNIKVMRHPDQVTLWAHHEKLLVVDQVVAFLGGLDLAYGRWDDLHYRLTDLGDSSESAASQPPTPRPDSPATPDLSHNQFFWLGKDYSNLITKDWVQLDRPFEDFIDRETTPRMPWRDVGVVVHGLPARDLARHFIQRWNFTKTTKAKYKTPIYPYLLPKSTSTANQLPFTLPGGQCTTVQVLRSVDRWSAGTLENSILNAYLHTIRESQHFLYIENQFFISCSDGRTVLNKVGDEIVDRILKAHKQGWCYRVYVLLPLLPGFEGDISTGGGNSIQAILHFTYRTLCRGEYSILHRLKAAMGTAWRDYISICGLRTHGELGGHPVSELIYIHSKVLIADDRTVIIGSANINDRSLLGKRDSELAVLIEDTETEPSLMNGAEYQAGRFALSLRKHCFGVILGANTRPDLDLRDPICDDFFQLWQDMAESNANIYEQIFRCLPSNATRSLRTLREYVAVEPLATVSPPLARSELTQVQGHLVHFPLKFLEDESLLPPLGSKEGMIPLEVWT
notes: also called PLD2 point mutant F265A
As to B1, the binding result was “no binding”.

B2: PLD2^E266R (enzyme)
chain: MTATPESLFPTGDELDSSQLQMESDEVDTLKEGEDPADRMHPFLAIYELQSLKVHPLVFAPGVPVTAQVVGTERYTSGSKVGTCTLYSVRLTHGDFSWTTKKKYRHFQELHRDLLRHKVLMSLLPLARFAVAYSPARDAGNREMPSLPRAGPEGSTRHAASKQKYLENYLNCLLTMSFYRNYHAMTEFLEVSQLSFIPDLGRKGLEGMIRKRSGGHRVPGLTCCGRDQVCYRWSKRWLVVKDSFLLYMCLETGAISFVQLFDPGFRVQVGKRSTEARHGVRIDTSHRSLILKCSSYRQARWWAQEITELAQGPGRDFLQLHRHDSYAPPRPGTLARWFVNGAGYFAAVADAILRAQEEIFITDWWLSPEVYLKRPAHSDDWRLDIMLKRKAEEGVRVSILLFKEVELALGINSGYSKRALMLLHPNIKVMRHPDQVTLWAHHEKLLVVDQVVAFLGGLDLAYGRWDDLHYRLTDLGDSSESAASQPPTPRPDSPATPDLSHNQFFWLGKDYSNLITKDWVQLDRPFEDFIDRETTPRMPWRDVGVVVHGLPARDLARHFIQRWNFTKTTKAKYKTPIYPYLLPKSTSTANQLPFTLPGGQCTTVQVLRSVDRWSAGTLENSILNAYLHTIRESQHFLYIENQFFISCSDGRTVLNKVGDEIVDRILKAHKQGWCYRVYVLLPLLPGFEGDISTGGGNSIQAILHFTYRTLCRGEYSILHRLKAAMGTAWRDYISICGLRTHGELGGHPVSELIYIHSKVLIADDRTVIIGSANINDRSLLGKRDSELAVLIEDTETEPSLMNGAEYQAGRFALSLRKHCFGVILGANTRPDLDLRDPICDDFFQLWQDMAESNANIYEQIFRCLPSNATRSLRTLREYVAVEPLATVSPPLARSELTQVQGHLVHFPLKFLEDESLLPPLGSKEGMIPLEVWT
notes: also called PLD2 point mutant E266R
With B2, the binding result is reported as “no binding”.

The values are drawn from patent US20100184636A1 (POSTECH ACADEMY INDUSTRY FOUNDATION, published 2010).
